# Measured values taken from paper PMC6664820, “Novel natural and synthetic inhibitors of solute carriers SGLT1 and SGLT2” (Pharmacology Research & Perspectives, 2019).
# Counter-ions that a name gives are not always drawn. About 40 (2%) of roughly 1,900 compounds showed an effect of 50% or more. The list shows a part of the results. Residues, ends and D or L forms follow the SMILES beside them. *: point of attachment. Tfa = O=C(C(F)(F)F)*
# Target: human SGLT1 (hSGLT1) (human, UniProt P13866)
# Experiment: primary screen, percent of control activity; higher = less effect of the substance
# Parameters: single well
# Conditions: 50 µM
# Outline: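 Single-point screen at 50 µmol/L in CHO-hSGLT1 cells, with 160 µmol/L 1-NBD-glucose in glucose-free DMEM for 90 min at 37°C. Fluorescence from isopropanol extracts was calibrated, and CHO wild-type uptake was subtracted. Data are percent of uptake without compound.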
# human SGLT1 (hSGLT1), sequence (P13866 whole entry, looked up): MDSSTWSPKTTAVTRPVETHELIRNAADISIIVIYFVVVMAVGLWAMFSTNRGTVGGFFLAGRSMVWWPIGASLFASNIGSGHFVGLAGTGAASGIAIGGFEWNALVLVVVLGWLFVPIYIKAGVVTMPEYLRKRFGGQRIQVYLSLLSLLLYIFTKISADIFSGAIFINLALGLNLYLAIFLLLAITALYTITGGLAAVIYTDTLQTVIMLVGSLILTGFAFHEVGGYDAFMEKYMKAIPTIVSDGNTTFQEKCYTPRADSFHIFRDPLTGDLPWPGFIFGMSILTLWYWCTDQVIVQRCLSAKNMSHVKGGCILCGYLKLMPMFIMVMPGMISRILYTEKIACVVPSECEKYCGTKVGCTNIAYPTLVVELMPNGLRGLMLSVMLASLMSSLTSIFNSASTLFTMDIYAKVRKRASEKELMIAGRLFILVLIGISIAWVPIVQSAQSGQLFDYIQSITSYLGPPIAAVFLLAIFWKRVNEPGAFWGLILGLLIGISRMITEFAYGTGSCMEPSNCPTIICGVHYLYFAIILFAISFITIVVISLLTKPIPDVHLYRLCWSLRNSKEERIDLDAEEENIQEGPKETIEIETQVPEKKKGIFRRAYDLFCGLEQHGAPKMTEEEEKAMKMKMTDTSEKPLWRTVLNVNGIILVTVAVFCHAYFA
row,SMILES,NORMALIZED SGLT1 ACTIVITY (%)
1,COc1ccc(CC(=O)c2ccc(O)cc2O)cc1,256%
2,CC1=C(CC(=O)O)c2cc(F)ccc2/C1=C\c1ccc(S(C)=O)cc1 (stereo not drawn),147%
3,Cc1c(NC(=O)c2cccnc2)c(=O)n(-c2ccccc2)n1C,130%
4,CC(=O)O[C@@H]1CC2C(C)(C)[C@H](O)CC[C@]2(C)C2CC[C@@]3(C)[C@H](c4ccoc4)OC(=O)C4OC43[C@@]21C (stereo partly drawn),104%
5,C=C1C2CC[C@@]3(C)[C@H](c4ccoc4)OC(=O)C[C@]13O[C@H]1CC(O)C(C)(C)C(CC(=O)OC)[C@@]21C (stereo partly drawn),104%
6,CC(C)Nc1nc(Cl)nc(NC(C)C)n1,109%
7,CC(=O)O[C@H]1CC[C@]2(C)C3CC[C@@]4(C)C(CC5O[C@@]6(CCC(C)CO6)[C@@H](C)C54)C3CC[C@H]2C1 (stereo partly drawn),106%
8,CCCCSP(=O)(SCCCC)SCCCC,75%
9,Clc1ccc(C(c2ccccc2Cl)C(Cl)Cl)cc1 (stereo not drawn),78%
10,CCCc1nc2c(C)cc(-c3nc4ccccc4n3C)cc2n1Cc1ccc(-c2ccccc2C(=O)O)cc1,171%
11,O=C1c2ccccc2C(=O)c2c(O)c(O)cc(O)c21,154%
12,CN(C)CCOC(=O)C(c1ccccc1)C1(O)CCCC1.Cl (stereo not drawn),87%
13,COc1cc([C@@H]2c3cc4c(cc3[C@H](OC(C)=O)[C@H]3COC(=O)[C@@H]23)OCO4)cc(OC)c1OC,105%
14,CN(C)CCOC(c1ccc(Cl)cc1)c1ccccn1.O=C(O)/C=C\C(=O)O (stereo not drawn),63%
15,O=C(O)c1cc2ccccc2[nH]1,133%
16,N=C1NCCN1CC(=O)O,123%
17,O=C1C=CC(=O)c2c(O)cccc21,98%
18,CO[C@@]1(NC(=O)C(C(=O)[O-])c2ccc(O)cc2)C(=O)N2C(C(=O)[O-])=C(CSc3nnnn3C)CO[C@@H]21.[Na+].[Na+] (stereo partly drawn),97%
19,CON.Cl,87%
20,COP(=S)(OC)Oc1ccc([N+](=O)[O-])cc1,85%
21,COC1C=CC23c4cc5c(cc4CN(C[C@H]2O)[C@@H]3C1)OCO5 (stereo partly drawn),139%
22,CC(=O)Oc1c2c(c(CC=C(C)C)c3c1C(=O)C1=C[C@@H]4CC5C(C)(C)OC(C/C=C(\C)C(=O)O)(C4=O)[C@@]15O3)OC(C)(CCC=C(C)C)C=C2 (stereo partly drawn),187%
23,COc1ccc(-c2coc3c(OC)c(OC)cc(O)c3c2=O)cc1,303%
24,NC[C@@H]1O[C@H](O[C@H]2[C@@H](O)[C@H](O[C@@H]3[C@@H](O)[C@H](N)C[C@H](N)[C@H]3O[C@H]3O[C@H](CO)[C@@H](O)[C@H](O)[C@H]3N)O[C@@H]2CO)[C@H](N)[C@@H](O)[C@@H]1O.O=S(=O)(O)O,113%
25,NC[C@H]1CC[C@H](C(=O)O)CC1,87%
26,COc1ccc(-c2cc(=O)c3c(O)cc(O)c(-c4cc(-c5cc(=O)c6c(O)cc(O)cc6o5)ccc4OC)c3o2)cc1,168%
27,COc1ccc2c(c1)OCC(Cc1ccc(OC)c(OC(C)=O)c1)C2=O (stereo not drawn),247%

row,SMILES,NORMALIZED SGLT1 ACTIVITY (%)
1,COc1ccc([C@H]2Oc3cc(OC)cc(OC)c3C[C@H]2O)cc1,324%
2,CC(C)[C@H]1CC[C@H](C(=O)N[C@H](Cc2ccccc2)C(=O)O)CC1,124%
3,COC(=O)/C(=C1/OC(=O)C(c2ccccc2)=C1O)c1ccccc1,128%
4,COc1cc(O)c(C(=O)c2ccccc2)cc1O,235%
5,CC(C)C(NC(=O)C(Cc1ccc(O)cc1)NC(=O)C(NC(=O)C(F)(F)F)C(C)C)C(=O)O (stereo not drawn) (Tfa-Val-Tyr-Val-OH; configuration not given here),97%
6,CC1=C(/C=C/C(C)=C/C=C/C(C)=C\C(=O)O)C(C)(C)CCC1,134%
7,COc1cc(OC)c2c(=O)c(O)c(-c3ccc(OC)c(OC)c3)oc2c1,99%
8,CCCOc1ccc2nc(NC(=O)OC)[nH]c2c1,115%
9,Cc1cc(NS(=O)(=O)c2ccc(N)cc2)no1,103%
10,CC(=O)O[C@@H]1CC2C(C)(C)C(=O)CC[C@]2(C)C2CC[C@@]3(C)[C@H](c4ccoc4)OC(=O)C4OC43[C@@]21C (stereo partly drawn),139%
11,CCCCCCc1ccc(O)cc1O.Nc1c2ccccc2nc2ccccc12,383%
12,O=C(c1ccc(F)cc1)C1CCN(CCn2c(=O)[nH]c3ccccc3c2=O)CC1,131%
13,COc1ccc2c(c1)OCC(Cc1ccc(OC)c(OC)c1)C2=O (stereo not drawn),204%
14,CC1(C)C(=O)[C@@H]2O[C@@H]2[C@@]2(C)C1C[C@@H](O)[C@]1(C)C2CC[C@@]2(C)[C@H](c3ccoc3)OC(=O)C3OC321 (stereo partly drawn),113%
15,C[C@H]1O[C@@H](O[C@H]2[C@@H](O)C[C@H](O[C@H]3[C@@H](O)C[C@H](O[C@H]4CC[C@@]5(C)[C@H](CC[C@@H]6[C@@H]5CC[C@]5(C)[C@@H](C7=CC(=O)OC7)CC[C@]65O)C4)O[C@@H]3C)O[C@@H]2C)C[C@H](O)[C@@H]1O,111%
16,CCCCCCCCNC(C)C(O)c1ccc(SC(C)C)cc1 (stereo not drawn),71%
17,CC1(C)C[C@@H]2C(=O)CC[C@H]3O[C@]3(C)CC[C@H]21,99%
18,CC(C)[C@@H]1CC[C@@H](C)CC1=O,106%
19,NC(Cc1c[nH]cn1)C(=O)Nc1ccc2ccccc2c1 (stereo not drawn),153%
20,CC(C)(C)NCC(O)c1cc(Cl)c(N)c(Cl)c1.Cl (stereo not drawn),125%
21,O.O=P1(N(CCCl)CCCl)NCCCO1 (stereo not drawn),175%
22,CN(C)c1ccc(C(=C2C=CC(=[N+](C)C)C=C2)c2ccc(N(C)C)cc2)cc1.[Cl-],43%
23,CCCC(=O)O[C@]1(C(=O)CO)CC[C@H]2[C@@H]3CCC4=CC(=O)CC[C@]4(C)[C@H]3[C@@H](O)C[C@@]21C,134%
24,CC(C)=CCCC1(C)C=Cc2c(O)c3c(c(CC=C(C)C)c2O1)OC12C(CC4CC1C(C)(C)OC2(C/C=C(/C)C(=O)O)C4O)C3=O (stereo not drawn),216%
25,COc1ccc2ccc(=O)oc2c1CC=C(C)C,103%
26,O=c1[nH]c(=O)n([C@H]2C[C@H](O)[C@@H](CO)O2)cc1C(F)(F)F,115%
27,Cc1nnc(SCC2=C(C(=O)[O-])N3C(=O)[C@@H](NC(=O)Cn4cnnn4)[C@H]3SC2)s1.[Na+],79%
